For 87 compounds, survival results are on record in PubChem BioAssay AID463173 (ICCB-Longwood Screening Facility, Harvard Medical School, 2010).

The campaign covered roughly 52,000 compounds. About 1,700 (3.3%) were called active. Rule as the data show it: active = survival mostly below about 52% (no sharp cut-off); inactive = mostly above about 56%. The list shows a part of the results.

The test relates to Wild type. The test can be described thus: S. aureus survival, RN4220 and DeltatarO strains – OD600, teichoic acid synthesis inhibitors, primary screen (AID 463173). The following applies: S. aureus RN4220 wild type/DeltatarO growth, OD600, 18 h, active compounds read low, screened at 18.75 µg/mL (by protocol).
As for `O=C(c1c[nH]c2c(F)cccc2c1=O)N1CCNCC1`, the survival is inactive: 94%.

Consider `CCOc1ccc2[nH]c(=O)c(CN(C(=S)NCc3ccco3)C3CCCC3)cc2c1`, for which the survival is inactive: 133%.

`Cc1cc(C)cc(N(CC(=O)NCc2ccccc2Cl)S(=O)(=O)c2c(C)noc2C)c1`: the survival was inactive: 81%.

As to `O=C(Cn1nc(-c2ccccc2)ccc1=O)Nc1ccc(N2CCN(C(=O)c3ccccc3)CC2)cc1`, the survival was inactive: 97%.

As to `CCc1nn2c(=O)cc(COC(=O)C(c3ccccc3)c3ccccc3)nc2s1`, the survival was inactive: 90%.

As to `Cc1cccc(-c2nc(SCC(=O)Nc3ccc4c(c3)OCCO4)c(-c3ccccc3)[nH]2)c1`, the survival was inactive: 75%.

Regarding `CCOC(=O)Cn1c(=O)n(-c2ccccc2OC)c2nc(-c3ccccc3C)nc(C(N)=O)c21`, the survival was inactive: 63%.

Take `O=C(COc1ccccc1)Nc1ccccc1C(=O)OCc1cc(=O)n2nc(C3CC3)sc2n1`: the survival was inactive: 71%.

Regarding `O=C(O)c1cccc(N2C(=O)c3cccnc3C2=O)c1`, the survival was inactive: 90%.

On to `CCOCCc1nn2c(=O)cc(COC(=O)C(CC)c3ccccc3)nc2s1` (configuration not stated), for which the survival is active: 14%.

For the compound `Cc1nnc(N2CCN(c3ccccc3F)CC2)c2c1nnn2Cc1ccccc1`, the survival was inactive: 87%.

With `Cc1cccc(C(=O)Nc2ccccc2SCc2cc(=O)c3cccc(C)c3[nH]2)c1`, the survival is inactive: 82%.

On to `CCOc1ccc(NC(=O)CC2C(=O)N(c3cccc(C)c3)C(=O)N2Cc2cccnc2)cc1` (configuration not stated), for which the survival is inactive: 47%.

For `CCOc1ccc(NC(=O)Cn2c(=O)n(CCC(=O)NCCc3ccccc3)c(=O)c3ccccc32)cc1`, the survival was inactive: 66%.

For `Cc1ccc2occ(-c3cc(-c4ccc(Cl)cc4)nc4c3COc3ccccc3-4)c(=O)c2c1`, the survival is inactive: 86%.

For `Cc1ccc(N(C)C(=O)C2CCCN(c3ncnc4c3nc3n4CCCCC3)C2)cc1C` (configuration not stated), the survival was inactive: 127%.

Take `Cc1ccc(Cn2c(=O)n(Cc3ccccc3Cl)c(=O)c3ccccc32)cc1`: the survival is inactive: 56%.

For `CCCCc1nn2c(=O)cc(COC(=O)c3ccc(NC(=O)C4CCCCC4)cc3)nc2s1`, the survival is inactive: 77%.

In the case of `CCCn1cc(S(=O)(=O)c2ccc(CC)cc2)c(=O)c2ccccc21`, the survival was inactive: 86%.

As to `Cc1cccc(N2CCN(C3(c4ccccc4)C(=O)c4ccccc4C3=O)CC2C)c1` (configuration not stated), the survival was inactive: 141%.

As for `Cc1ccc(-c2nc3cc(Cl)ccc3o2)cc1NC(=O)COc1ccc(F)cc1`, the survival was inactive: 90%.

With `Cc1ccc(C(c2sc3nc(-c4ccco4)nn3c2O)N2CCN(Cc3ccccc3)CC2)cc1` (configuration not stated), the survival was inactive: 121%.

On to `COc1ccccc1CNC(=O)c1cnn2c(C)c(Cc3ccc(F)cc3)c(C)nc12`, for which the survival was inactive: 88%.

For `CCOC(=O)c1ccc(NC(=O)CN2C(=O)COc3ccc(Cl)cc32)cc1`, the survival was inactive: 72%.

For `CC1=C(C(=O)OC2CCCC2)C(c2ccccc2Cl)CC(=O)N1` (configuration not stated), the survival was inactive: 76%.

With `Cc1ccc(Cl)cc1N1CCN(C(=O)C2CCN(Cc3nc(-c4ccc(Cl)cc4)oc3C)CC2)CC1`, the survival was active: -4%.

As to `CC(C)(C)OC(=O)N1CCC(c2c(C(=O)NC3CCCCC3)cnn2-c2cccc(Cl)c2)CC1`, the survival was inactive: 66%.

As for `Cn1nccc1C(=O)NCc1ccc2c(c1)CCN2C(=O)c1ccccc1`, the survival was inactive: 57%.

In the case of `CCOc1ccccc1NC(=O)Cn1nnc(C(=O)Nc2ccc(C)c(C)c2)c1N`, the survival is inactive: 59%.

Regarding `Cc1c(C(=O)N2CCC(C)CC2)c(S(=O)(=O)N2CCN(c3ccc(Cl)cc3)CC2)c(C)n1C`, the survival is inactive: 74%.

In the case of `COc1ccc(N2CCN(C(=O)c3oc4ccccc4c3NC(=O)c3ccccc3OC)CC2)cc1`, the survival is inactive: 129%.

Turning to `COc1ccc(-c2nc3sc(CCNC(=O)C(=O)Nc4c(C)cccc4C)c(C)n3n2)cc1`, the survival is inactive: 112%.

As for `CC1CCCN(CCCNC(=O)CN2C(=O)CSc3ccc(S(=O)(=O)N4CCOCC4)cc32)C1` (configuration not stated), the survival was inactive: 128%.

With `Cc1cc(=O)[nH]c(SCC(=O)N(c2ccccc2)c2ccccc2)n1`, the survival is inactive: 103%.

For `O=C(Cn1c(=O)oc2cc(S(=O)(=O)NC3CCCC3)ccc21)Nc1ccc(F)c(F)c1`, the survival is inactive: 70%.

Regarding `Cc1ccc(Cl)cc1N1CCN(S(=O)(=O)c2cc3[nH]c(=O)c(=O)[nH]c3cc2C)CC1`, the survival was inactive: 93%.

With `COC(=O)c1cc2nc(C)cc(C(F)(F)F)n2n1`, the survival was inactive: 104%.

In the case of `CCC(Oc1ccccc1)C(=O)Nc1nccs1` (configuration not stated), the survival is inactive: 127%.

For `CN1C(=O)Cc2cc(S(=O)(=O)NCCc3ccccc3)ccc21`, the survival is inactive: 124%.

As to `Cc1cccc(C)c1NC(=O)CS(=O)CC(=O)NC1CCCc2ccccc21` (configuration not stated), the survival was inactive: 107%.

On to `COc1ccc(NC(=O)C2CCCN2S(=O)(=O)c2ccc3nc(-c4ccccc4)[nH]c3c2)cc1` (configuration not stated), for which the survival was inactive: 78%.

For `O=C(CCn1c(=O)c2cccn2c2cccnc21)N1CCN(c2cccc(Cl)c2)CC1`, the survival was inactive: 46%.

Consider `Cc1cccc(-c2nc(SCC(=O)Nc3ccc4c(c3)OCO4)c(-c3ccccc3)[nH]2)c1`, for which the survival is inactive: 58%.

As to `COCCCNC(=O)Cn1cnc2sc(C)c(S(=O)(=O)N3CCN(c4ccccc4OC)CC3)c2c1=O`, the survival is inactive: 76%.

For `CCOC(=O)c1cc(-c2ccc(C)cc2)n(CCC(=O)Nc2ccc(OC)c(OC)c2)c1C`, the survival is inactive: 71%.

Consider `CCN1CCN(C(=O)c2ccc3c(c2)N(Cc2cccc(F)c2)C(=O)c2ccccc2S3)CC1`, for which the survival is inactive: 100%.

As to `COc1ccc(CCNC(=O)c2ccc3c(c2)N(Cc2ccc(Cl)cc2)CCS3)c(OC)c1`, the survival was inactive: 87%.

Take `CCCCCN1C(C(=O)c2ccccc2)=C(NC(=O)c2ccccc2Cl)c2ccccc2S1(=O)=O`: the survival is inactive: 72%.

On to `CC(=O)c1ccc(N2CCN(S(=O)(=O)c3ccc(-c4cc(C)no4)s3)CC2)cc1`, for which the survival is active: -6%.

On to `Cc1cc(C)c(S(=O)(=O)n2cnc(C)c2)c(C)c1`, for which the survival was inactive: 74%.

For the compound `COc1ccc2[nH]c(=O)c(CN(CCCN3CCOCC3)C(=O)NCc3ccccc3)cc2c1`, the survival is inactive: 101%.

On to `COC(=O)c1c(NC(=O)COc2cc(C)ccc2C(C)C)sc2c1CCC(C)C2` (configuration not stated), for which the survival was inactive: 66%.

For the compound `O=C1C(=O)N(c2cccnc2)C(c2ccc(O)cc2)/C1=C(\O)c1ccc(Br)cc1` (configuration not stated), the survival is inactive: 102%.

For the compound `Cc1ccc2nc3c(cc(C(=O)NC4CCCCC4)c(=N)n3C(C)C)c(=O)n2c1`, the survival is inactive: 75%.

As for `CCOC(=O)c1ccc(NC(=O)CC2NCCNC2=O)cc1` (configuration not stated), the survival is inactive: 87%.

`CCn1c2ccccc2c2cc(NC(=O)COc3ccc(C)c(C)c3)ccc21`: the survival is inactive: 128%.

Regarding `CCOC(=O)C1CCN(S(=O)(=O)c2ccc3c(c2)NC(=O)C(C)C(=O)N3)CC1` (configuration not stated), the survival was inactive: 114%.

Turning to `Cc1ccc(-c2ccc(=O)n(CC(=O)NCc3ccc(F)cc3)n2)cc1`, the survival is inactive: 83%.

As for `COc1ccc(-c2nc3n(n2)C(=O)CC(c2ccc(Cl)cc2)S3)cc1` (configuration not stated), the survival is inactive: 78%.

Turning to `CCN(CC)C(=O)Oc1ccc(Cl)c2cccnc12`, the survival was inactive: 107%.

Regarding `N#Cc1cccc(NC(=O)C2CCN(c3ncccn3)CC2)c1`, the survival is inactive: 82%.

For `CCOc1cc(C(=O)Nc2ccc(-c3nc4ncccc4o3)cc2C)cc(OCC)c1OCC`, the survival is inactive: 95%.

In the case of `CCS(=O)(=O)CCSc1nc(-c2ccc(Br)cc2)cc(-c2ccccc2)c1C#N`, the survival was inactive: 99%.

Consider `CC1=C(C(=O)Nc2ccccc2C)C(c2cccnc2)n2nc(SCc3ccccc3F)nc2N1` (configuration not stated), for which the survival was inactive: 81%.

In the case of `Cc1cc(C)nc(NCCS)n1`, the survival was inactive: 102%.

Consider `COC(=O)c1ccc(NC(=O)C2CCN(C(=O)c3ccc(F)cc3)CC2)cc1`, for which the survival is inactive: 69%.

`O=C(O)CCc1ccc(-c2ccccc2)n1CC(=O)Nc1ccccc1C(F)(F)F`: the survival is inactive: 77%.

In the case of `COc1ccccc1CNC(=O)CCCCn1c(=O)c2ccccc2n(CC(=O)Nc2cc(Cl)ccc2C)c1=O`, the survival was inactive: 91%.

In the case of `O=c1c2[nH]c3ccccc3c2nc(SCc2cccc(F)c2)n1-c1ccccc1`, the survival was inactive: 53%.

As to `COc1ccc2c(c1)c1c(c(=O)n(-c3ccccc3C)c(=O)n1CC(=O)Nc1c(C)cccc1C)n2C`, the survival is inactive: 77%.

As to `Cc1ccccc1Nc1nn2c(=O)c3ccc(C(=O)N4CCCC(C)C4)cc3nc2s1` (configuration not stated), the survival was inactive: 78%.

Consider `O=C(CCc1ccccc1)NC1CC(=O)N(c2ccccc2)C1` (configuration not stated), for which the survival was inactive: 78%.

For the compound `COc1cccc(OC)c1C(=O)Nc1ccc2c(c1)N(C(C)=O)CCC2`, the survival is inactive: 74%.

As for `Cc1ccc(NC(=O)CCC(=O)N2Cc3ccccc3Oc3ncccc32)cc1`, the survival is inactive: 22%.

In the case of `COc1ccc(NC(=O)Cn2c(SCc3ccc(C)cc3)nc3cccnc32)c(OC)c1`, the survival is inactive: 85%.

For the compound `CC1=NNC(=O)C1CC(=O)N/N=C/C=C/c1ccccc1` (configuration not stated), the survival was inactive: 104%.

Consider `COc1ccc(-c2cnc(C)o2)cc1S(=O)(=O)Nc1ccc(C)c(N(C)C)c1`, for which the survival was inactive: 128%.

For `O=C(CC1(c2ccc(Cl)cc2)C(=O)c2ccccc2C1=O)N1CCOCC1`, the survival is inactive: 111%.

For the compound `O=C1CC(c2ccc(Cl)cc2)Sc2nc(-c3ccc(F)cc3)nn21` (configuration not stated), the survival was inactive: 78%.

Turning to `CCOc1ccc(CNS(=O)(=O)c2cc(-c3cc(C)no3)ccc2C)cc1OC`, the survival is inactive: 73%.

Consider `CNc1cc(=O)n(C)c(=O)[nH]1`, for which the survival is inactive: 107%.

Regarding `CCc1ccc(-n2c(=O)c3c4c(sc3n(CC(=O)NC(C)CC)c2=O)CCCC4)cc1` (configuration not stated), the survival is inactive: 97%.

Turning to `Cn1c(=O)[nH]c2cc(-c3noc(-c4ccc(F)cc4)n3)ccc21`, the survival was inactive: 131%.

Take `CCn1c(=O)cc(SCC(=O)NCCc2ccc(OC)cc2OC)c2ccccc21`: the survival is inactive: 66%.

Take `COCCCNC(=O)CSc1nc(-c2ccccc2)[nH]c1-c1ccc(C)cc1`: the survival is inactive: 83%.

Regarding `CCc1cnc2c(c1SCC(=O)Nc1ccc(C)cc1C)c(=O)n(C)c(=O)n2C`, the survival is inactive: 68%.

For `CCCn1c(=O)c2sccc2n2c(CCCC(=O)Nc3cccc(CC)c3)nnc12`, the survival was inactive: 97%.
